Data: PubChem BioAssay (Tox21)
Values joined by “and” are separate entries in the source; they are usually repeats but may differ in a detail not shown here. Equal entries are not always repeated. Inconclusive results, whose numbers are uncertain, are shown with a selection of clear calls. A potency beside an inconclusive call is a rough fit, not a confirmed value. Some structures have more than one record in an assay (separate samples or runs), and their calls can disagree. Active and inactive are the calls of the source. Unless noted, the call rests on the fitted dose curve; in most records, active means well fitted cell-killing curve with a large enough effect in the repeat runs; inconclusive means weak or mixed curves; inactive means no such curve, though single readings can be large or run the other way.

tested on: not listed separately; assay: qHTS assay to identify small molecule antagonists of the androgen receptor (AR) signaling pathway - cell viability counter screen (AID 743033; further: nearly all actives have a fitted effect of over 45% in size); conditions: AR-bla HEK293 viability, CellTiter-Glo luminescence, 16 h; series mostly up to 58.5 µM; activity change, negative = cytotoxicity: at the top concentration
On the % scale 0 is the no-effect control and ±100 the full control effect; potency means the concentration at half of the fitted maximal effect; tags describe the fitted curve by direction and shape or compound fluorescence and quenching.

Compound	Potency
CSc1ccc2c(c1)C(N1CCN(C)CC1)Cc1ccccc1S2 (stereo not drawn)	inconclusive: 19 µM [cytotoxic]
Cc1ccc(C(C)(C)C)c(O)c1	inconclusive: 59.7 µM [cytotoxic, partial curve, poor fit] and inconclusive: 43.6 µM [cytotoxic, partial curve]
CC(CN1c2ccccc2Sc2ccccc21)N(C)C (stereo not drawn)	active: 44.1 µM and inconclusive: 21.9 µM [cytotoxic, partial curve]
Oc1ccc(Cl)cc1C1CCCC1	inconclusive: 27.5 µM [cytotoxic, partial curve, poor fit]
CCCCOCCOCCOC(C)=O	inactive
CC1=C(C(=O)OC(C)C)C(c2cccc([N+](=O)[O-])c2)C(C(=O)OC2CN(C(c3ccccc3)c3ccccc3)C2)=C(N)N1 (stereo not drawn)	inconclusive: 2.13 µM [rising, full curve, poor fit]
CCCCCCOc1cc(C)c(O)c(C)c1C	inconclusive: 22.1 µM [cytotoxic]

biological target: Androgen receptor (Homo sapiens) (UniProt P10275); assay: qHTS assay to identify small molecule antagonists of the androgen receptor (AR) signaling pathway (AID 743035; active means well fitted inhibition curve with a large enough effect in the signal ratio in the repeat runs, not every such curve was filed as active; inconclusive means weak or mixed curves, or effect the other way; inactive means no such curve, though single readings can be large or run the other way; the % refers to the signal ratio); conditions: HEK293 AR-UAS-bla, R1881-stimulated, beta-lactamase FRET, 16 h; activity change, negative = inhibition: at 58.5 µM (top of the series) unless noted
How it was run: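 Quantitative HTS of the Tox21 10K library used HEK293 AR-UAS-bla cells stimulated with R1881 alongside compound for 16 h at 37C, followed by beta-lactamase FRET detection (LiveBLAzer B/G, 2 h, RT).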

Sequence of UniProt P10275 (P10275 whole entry, looked up): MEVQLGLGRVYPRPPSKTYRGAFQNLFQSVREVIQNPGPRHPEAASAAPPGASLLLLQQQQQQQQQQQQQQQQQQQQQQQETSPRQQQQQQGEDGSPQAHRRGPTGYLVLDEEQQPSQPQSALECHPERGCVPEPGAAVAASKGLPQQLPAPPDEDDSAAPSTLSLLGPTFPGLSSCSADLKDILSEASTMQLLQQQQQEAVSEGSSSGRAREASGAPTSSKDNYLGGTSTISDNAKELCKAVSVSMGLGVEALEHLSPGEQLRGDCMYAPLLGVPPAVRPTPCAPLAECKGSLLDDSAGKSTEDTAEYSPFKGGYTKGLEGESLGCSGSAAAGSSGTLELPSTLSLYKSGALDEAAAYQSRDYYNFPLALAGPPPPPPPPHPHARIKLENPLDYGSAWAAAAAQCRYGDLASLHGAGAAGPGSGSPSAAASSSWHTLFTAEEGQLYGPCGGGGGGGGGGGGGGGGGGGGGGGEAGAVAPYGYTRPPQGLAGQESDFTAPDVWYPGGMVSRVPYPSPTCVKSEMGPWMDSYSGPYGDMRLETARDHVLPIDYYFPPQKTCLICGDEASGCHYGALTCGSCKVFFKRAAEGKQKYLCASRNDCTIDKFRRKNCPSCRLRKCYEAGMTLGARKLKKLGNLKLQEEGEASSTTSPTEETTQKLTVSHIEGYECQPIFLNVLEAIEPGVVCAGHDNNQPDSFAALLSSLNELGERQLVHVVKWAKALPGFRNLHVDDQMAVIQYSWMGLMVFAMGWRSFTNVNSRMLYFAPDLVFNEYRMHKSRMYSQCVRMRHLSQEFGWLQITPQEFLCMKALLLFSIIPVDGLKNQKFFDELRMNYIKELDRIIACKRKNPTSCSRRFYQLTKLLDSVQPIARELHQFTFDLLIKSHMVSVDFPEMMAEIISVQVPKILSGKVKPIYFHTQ

Compound	Potency	activity change, negative = inhibition
CCC(C)(C)c1cc(O)c(C(C)(C)CC)cc1O	inconclusive: 54.9 µM	–
[O-][n+]1ccccc1SSc1cccc[n+]1[O-]	inconclusive: 0.535 µM [falling, full curve]	–
CCCCCCCCCCCCCCCCC(C(=O)O)C(O)(CC(=O)O)C(=O)O (stereo not drawn)	–	inconclusive: 0.586%
[Cl][Bi]([Cl])([c]1ccccc1)([c]1ccccc1)[c]1ccccc1	inconclusive: 43.4 µM [falling, partial curve, poor fit]	–
CC/C(=C(\c1ccc(O)cc1)c1ccc(OCCN(C)C)cc1)c1ccccc1	inconclusive: 55.1 µM [falling, partial curve]	–
CCc1ccc(O)cc1	–	inconclusive: 1.02% [at 78.9 µM]
O=C(O)c1ccccc1C(c1ccc(O)cc1)c1ccc(O)cc1	–	inactive: 1.05%
Cc1oc(-c2ccccc2)nc1CCOc1ccc(C[C@H](Nc2ccccc2C(=O)c2ccccc2)C(=O)O)cc1	inconclusive: 27.5 µM	–
O=C(CCCCCCCCc1cccnc1)N1CCC(C=C(c2ccccc2)c2ccccc2)CC1	inconclusive: 19.5 µM [falling, single point]	–
CCCCC(CC)CN1CN(CC(CC)CCCC)CC(C)(N)C1 (stereo not drawn)	–	inactive: 0.0581% [at 27 µM]
Clc1ccc(C(Cn2ccnc2)OCc2c(Cl)cccc2Cl)c(Cl)c1 (stereo not drawn)	–	inconclusive: -22.1% [at 27 µM]
CCCSS/C(CCO)=C(\C)N(C=O)Cc1cnc(C)nc1N	inconclusive: 26.8 µM [falling, single point]	–
CS(=O)(=O)CCNCc1ccc(-c2ccc3ncnc(Nc4ccc(OCc5cccc(F)c5)c(Cl)c4)c3c2)o1	–	inactive: 6.95%
CCCN(CCC)C(=O)C(CCC(=O)OCCCN1CCN(CCOC(=O)Cc2c(C)n(C(=O)c3ccc(Cl)cc3)c3ccc(OC)cc23)CC1)NC(=O)c1ccccc1 (stereo not drawn)	inconclusive: 23.9 µM	–
CC[C@]1(O)C[C@H]2CN(CCc3c([nH]c4ccccc34)[C@@](C(=O)OC)(c3cc4c(cc3OC)N(C=O)[C@H]3[C@@](O)(C(=O)OC)[C@H](OC(C)=O)[C@]5(CC)C=CCN6CC[C@]43[C@@H]65)C2)C1	active: 0.0338 µM	–
OCCO	inactive	–
Cc1cc(F)ccc1-c1cc(N2CC[C@@H](O)[C@H]2CO)ncc1N(C)C(=O)C(C)(C)c1cc(C(F)(F)F)cc(C(F)(F)F)c1	active: 15.3 µM	–
CCOC(=O)C1=C(C)NC(C)=C(C(=O)OCC)C1c1ccccc1/C=C/C(=O)OC(C)(C)C	inconclusive: 10.7 µM [rising, partial curve, poor fit]	–
Cc1ccc2nc(-c3ccc(N)cc3)sc2c1S(=O)(=O)O	inconclusive: 13.6 µM [rising, partial curve]	–
O=S1(=O)CC(Cl)(Cl)C(Cl)(Cl)C1	inconclusive: 3.47 µM [rising, full curve]	–

biological target: Androgen receptor (Homo sapiens) (UniProt P10275); assay: qHTS assay to identify small molecule agonists of the androgen receptor (AR) signaling pathway (AID 743036; active means well fitted activation curve with a large enough effect in the signal ratio in the repeat runs, with a control signal flat, not every such curve was filed as active; inconclusive means weak or mixed curves, or effect the other way; inactive means no such curve, though single readings can be large or run the other way; the % refers to the signal ratio); conditions: HEK293 AR-UAS-bla GripTite, beta-lactamase FRET ratio, 16 h; activation: at 62.4 µM (top of the series) unless noted
How it was run: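 Quantitative HTS of the Tox21 10K library in HEK293 cells bearing a stably integrated UAS-controlled beta-lactamase reporter. Compound exposure lasted 16 h at 37C. Reporter activity was detected by FRET substrate fluorescence after 2 h at room temperature.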

Compound	activation	Potency
CCC(C)(C)c1cc(O)c(C(C)(C)CC)cc1O	inconclusive: 28.4%	–
[O-][n+]1ccccc1SSc1cccc[n+]1[O-]	–	inconclusive: 3.38 µM [falling, full curve]
CCCCCCCCCCCCCCCCC(C(=O)O)C(O)(CC(=O)O)C(=O)O (stereo not drawn)	–	inconclusive: 26.8 µM [falling, partial curve, poor fit]
[Cl][Bi]([Cl])([c]1ccccc1)([c]1ccccc1)[c]1ccccc1	–	inconclusive: 54.6 µM [single point]
CC/C(=C(\c1ccc(O)cc1)c1ccc(OCCN(C)C)cc1)c1ccccc1	–	inconclusive: 49.1 µM [cytotoxic, partial curve]
CCc1ccc(O)cc1	–	inactive
Cc1oc(-c2ccccc2)nc1CCOc1ccc(C[C@H](Nc2ccccc2C(=O)c2ccccc2)C(=O)O)cc1	–	inconclusive: 7.76 µM [rising, partial curve, poor fit]
O=C(CCCCCCCCc1cccnc1)N1CCC(C=C(c2ccccc2)c2ccccc2)CC1	inactive: -17.7%	–
Clc1ccc(C(Cn2ccnc2)OCc2c(Cl)cccc2Cl)c(Cl)c1 (stereo not drawn)	–	inconclusive: 9.1 µM [partial curve]
CS(=O)(=O)CCNCc1ccc(-c2ccc3ncnc(Nc4ccc(OCc5cccc(F)c5)c(Cl)c4)c3c2)o1	inconclusive: -23.7%	–
CCCN(CCC)C(=O)C(CCC(=O)OCCCN1CCN(CCOC(=O)Cc2c(C)n(C(=O)c3ccc(Cl)cc3)c3ccc(OC)cc23)CC1)NC(=O)c1ccccc1 (stereo not drawn)	–	inconclusive: 13.4 µM [rising, partial curve, poor fit]
CC[C@]1(O)C[C@H]2CN(CCc3c([nH]c4ccccc34)[C@@](C(=O)OC)(c3cc4c(cc3OC)N(C=O)[C@H]3[C@@](O)(C(=O)OC)[C@H](OC(C)=O)[C@]5(CC)C=CCN6CC[C@]43[C@@H]65)C2)C1	inconclusive: 16.7%	–
Cc1cc(F)ccc1-c1cc(N2CC[C@@H](O)[C@H]2CO)ncc1N(C)C(=O)C(C)(C)c1cc(C(F)(F)F)cc(C(F)(F)F)c1	–	inconclusive: 43 µM [cytotoxic]
CCOC(=O)C1=C(C)NC(C)=C(C(=O)OCC)C1c1ccccc1/C=C/C(=O)OC(C)(C)C	–	inconclusive: 5.35 µM [fluorescent, partial curve, poor fit]
Cc1ccc2nc(-c3ccc(N)cc3)sc2c1S(=O)(=O)O	–	inconclusive: 15.2 µM [fluorescent, partial curve, poor fit]
O=S1(=O)CC(Cl)(Cl)C(Cl)(Cl)C1	inconclusive: 69.8%	–
